Laboratory results taken from the supplement of paper PMC8728848.
The list shows a part of the results.

How the values were obtained:
Experiment in all cases: glycan array binding signal (z-score within array); higher = stronger binding
Conditions in all cases: glycan notation: IUPAC condensed, linker removed; mutation: H262T
[1] = molecular target: Neu5Ac(a2-3)Gal(b1-4)GlcNAc(b1-2)Man(a1-3)[Neu5Ac(a2-6)Gal(b1-4)GlcNAc(b1-2)Man(a1-6)]Man(b1-4)GlcNAc(b1-4)GlcNAc
Procedure, shortened: (§1)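 The binding signal is a Z-score computed within each array and averaged over linkers. Arrays of the same protein sequence at different concentrations or buffers were also averaged together. Data originate from 3228 arrays in the Consortium for Functional Glycomics database, kept only where the protein sequence was available.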

[2] = molecular target: Neu5Ac(a2-3)Gal(b1-4)GlcNAc(b1-2)[Neu5Ac(a2-3)Gal(b1-4)GlcNAc(b1-4)]Man(a1-3)[GlcNAc(b1-4)][Neu5Ac(a2-3)Gal(b1-4)GlcNAc(b1-2)[Neu5Ac(a2-3)Gal(b1-4)GlcNAc(b1-6)]Man(a1-6)]Man(b1-4)GlcNAc(b1-4)GlcNAc
Procedure, shortened: as §1

[3] = molecular target: Neu5Ac(a2-3)Gal(b1-4)GlcNAc(b1-2)[Neu5Ac(a2-3)Gal(b1-4)GlcNAc(b1-4)]Man(a1-3)[GlcNAc(b1-4)][Neu5Ac(a2-3)Gal(b1-4)GlcNAc(b1-4)Man(a1-6)]Man(b1-4)GlcNAc(b1-4)GlcNAc
Procedure, shortened: as §1

[4] = molecular target: Neu5Ac(a2-3)Gal(b1-4)GlcNAc(b1-2)[Neu5Ac(a2-3)Gal(b1-4)GlcNAc(b1-6)]Man(a1-6)[Neu5Ac(a2-3)Gal(b1-4)GlcNAc(b1-2)Man(a1-3)][GlcNAc(b1-4)]Man(b1-4)GlcNAc(b1-4)GlcNAc
Procedure, shortened: as §1

[5] = molecular target: Neu5Ac(a2-3)Gal(b1-4)GlcNAc(b1-3)Gal
Procedure, shortened: as §1

[6] = molecular target: Neu5Ac(a2-3)Gal(b1-4)GlcNAc(b1-3)Gal(b1-3)GlcNAc
Procedure, shortened: as §1

[7] = molecular target: Neu5Ac(a2-3)Gal(b1-4)GlcNAc(b1-3)Gal(b1-4)GlcNAc
Procedure, shortened: as §1

[8] = molecular target: Neu5Ac(a2-3)Gal(b1-4)GlcNAc(b1-3)Gal(b1-4)GlcNAc(b1-2)Man(a1-3)[Neu5Ac(a2-3)Gal(b1-4)GlcNAc(b1-3)Gal(b1-4)GlcNAc(b1-2)Man(a1-6)]Man(b1-4)GlcNAc(b1-4)GlcNAc
Procedure, shortened: as §1

[9] = molecular target: Neu5Ac(a2-3)Gal(b1-4)GlcNAc(b1-3)Gal(b1-4)GlcNAc(b1-3)Gal(b1-4)GlcNAc
Procedure, shortened: as §1

[10] = molecular target: Neu5Ac(a2-3)Gal(b1-4)GlcNAc(b1-3)Gal(b1-4)GlcNAc(b1-3)Gal(b1-4)GlcNAc(b1-2)Man(a1-3)[Neu5Ac(a2-3)Gal(b1-4)GlcNAc(b1-3)Gal(b1-4)GlcNAc(b1-3)Gal(b1-4)GlcNAc(b1-2)Man(a1-6)]GalNAc
Procedure, shortened: as §1

[11] = molecular target: Neu5Ac(a2-3)Gal(b1-4)GlcNAc(b1-3)Gal(b1-4)GlcNAc(b1-3)GalNAc
Procedure, shortened: as §1

[12] = molecular target: Neu5Ac(a2-3)Gal(b1-4)GlcNAc(b1-3)Gal(b1-4)GlcNAc(b1-3)[Neu5Ac(a2-3)Gal(b1-4)GlcNAc(b1-3)Gal(b1-4)GlcNAc(b1-6)]GalNAc
Procedure, shortened: as §1

[13] = molecular target: Neu5Ac(a2-3)Gal(b1-4)GlcNAc(b1-3)Gal(b1-4)GlcNAc(b1-6)[Gal(b1-3)]GalNAc
Procedure, shortened: as §1

[14] = molecular target: Neu5Ac(a2-3)Gal(b1-4)GlcNAc(b1-3)Gal(b1-4)[Fuc(a1-3)]GlcNAc
Procedure, shortened: as §1

[15] = molecular target: Neu5Ac(a2-3)Gal(b1-4)GlcNAc(b1-3)GalNAc
Procedure, shortened: as §1

[16] = molecular target: Neu5Ac(a2-3)Gal(b1-4)GlcNAc(b1-3)[Neu5Ac(a2-3)Gal(b1-4)GlcNAc(b1-6)]GalNAc
Procedure, shortened: as §1

[17] = molecular target: Neu5Ac(a2-3)Gal(b1-4)GlcNAc(b1-6)GalNAc
Procedure, shortened: as §1

[18] = molecular target: Neu5Ac(a2-3)Gal(b1-4)GlcNAc(b1-6)[Gal(b1-3)]GalNAc
Procedure, shortened: as §1

[19] = molecular target: Neu5Ac(a2-3)Gal(b1-4)GlcNAc(b1-6)[Neu5Ac(a2-3)Gal(b1-3)]GalNAc
Procedure, shortened: as §1

[20] = molecular target: Neu5Ac(a2-3)Gal(b1-4)GlcNAc6S
Procedure, shortened: as §1

[21] = molecular target: Neu5Ac(a2-3)Gal(b1-4)[Fuc(a1-3)]GlcNAc
Procedure, shortened: as §1

[22] = molecular target: Neu5Ac(a2-3)Gal(b1-4)[Fuc(a1-3)]GlcNAc(b1-2)Man
Procedure, shortened: as §1

[23] = molecular target: Neu5Ac(a2-3)Gal(b1-4)[Fuc(a1-3)]GlcNAc(b1-3)Gal
Procedure, shortened: as §1

[24] = molecular target: Neu5Ac(a2-3)Gal(b1-4)[Fuc(a1-3)]GlcNAc(b1-3)Gal(b1-4)GlcNAc
Procedure, shortened: as §1

[25] = molecular target: Neu5Ac(a2-3)Gal(b1-4)[Fuc(a1-3)]GlcNAc(b1-3)Gal(b1-4)[Fuc(a1-3)]GlcNAc(b1-3)Gal(b1-4)[Fuc(a1-3)]GlcNAc
Procedure, shortened: as §1

[26] = molecular target: Neu5Ac(a2-3)Gal(b1-4)[Fuc(a1-3)]GlcNAc(b1-3)GalNAc
Procedure, shortened: as §1

[27] = molecular target: Neu5Ac(a2-3)Gal(b1-4)[Fuc(a1-3)]GlcNAc(b1-6)[Gal(b1-3)]GalNAc
Procedure, shortened: as §1

[28] = molecular target: Neu5Ac(a2-3)Gal(b1-4)[Fuc(a1-3)]GlcNAc(b1-6)[Neu5Ac(a2-3)Gal(b1-3)]GalNAc
Procedure, shortened: as §1

[29] = molecular target: Neu5Ac(a2-3)Gal(b1-4)[Fuc(a1-3)]GlcNAc6S
Procedure, shortened: as §1

[30] = molecular target: Neu5Ac(a2-3)Gal6S(b1-4)GlcNAc
Procedure, shortened: as §1

[31] = molecular target: Neu5Ac(a2-3)Gal6S(b1-4)[Fuc(a1-3)]GlcNAc
Procedure, shortened: as §1

Neu5Ac(a2-3)GalNAc = molecular target: Neu5Ac(a2-3)GalNAc
Procedure, shortened: as §1

[32] = molecular target: Neu5Ac(a2-3)GalNAc(b1-4)GlcNAc
Procedure, shortened: as §1

[33] = molecular target: Neu5Ac(a2-3)[GalNAc(b1-4)]Gal(b1-4)Glc
Procedure, shortened: as §1

[34] = molecular target: Neu5Ac(a2-3)[GalNAc(b1-4)]Gal(b1-4)GlcNAc
Procedure, shortened: as §1

[35] = molecular target: Neu5Ac(a2-3)[GalNAc(b1-4)]Gal(b1-4)GlcNAc(b1-3)GalNAc
Procedure, shortened: as §1

[36] = molecular target: Neu5Ac(a2-3)[Neu5Ac(a2-6)]GalNAc
Procedure, shortened: as §1

Neu5Ac(a2-6)Gal = molecular target: Neu5Ac(a2-6)Gal
Procedure, shortened: as §1

[37] = molecular target: Neu5Ac(a2-6)Gal(b1-3)GlcNAc(b1-3)[Gal(b1-4)GlcNAc(b1-6)]Gal(b1-4)Glc
Procedure, shortened: as §1

Neu5Ac(a2-6)Gal(b1-4)Glc = molecular target: Neu5Ac(a2-6)Gal(b1-4)Glc
Procedure, shortened: as §1

[38] = molecular target: Neu5Ac(a2-6)Gal(b1-4)GlcNAc
Procedure, shortened: as §1

[39] = molecular target: Neu5Ac(a2-6)Gal(b1-4)GlcNAc(b1-2)Man
Procedure, shortened: as §1

[40] = molecular target: Neu5Ac(a2-6)Gal(b1-4)GlcNAc(b1-2)Man(a1-3)Man(b1-4)GlcNAc(b1-4)GlcNAc
Procedure, shortened: as §1

[41] = molecular target: Neu5Ac(a2-6)Gal(b1-4)GlcNAc(b1-2)Man(a1-3)[Gal(b1-4)GlcNAc(b1-2)Man(a1-6)]Man(b1-4)GlcNAc(b1-4)GlcNAc
Procedure, shortened: as §1

[42] = molecular target: Neu5Ac(a2-6)Gal(b1-4)GlcNAc(b1-2)Man(a1-3)[GlcNAc(b1-2)Man(a1-6)]Man(b1-4)GlcNAc(b1-4)GlcNAc
Procedure, shortened: as §1

B1: MGL6A (Homo sapiens) (protein)
chain: MTRTYENFQYLENKVKVQGFKNGPLPLQSLLQRLCSGPCHLLLSLGLGLLLLVIICVVGFQNSKFQRDLVTLRTDFSNFTSNTVAEIQALTSQGSSLEETIASLKAEVEGFKQERQAVHSEMLLRVQQLVQDLKKLTCQVATLNNNGEEASTEGTCCPVNWVEHQDSCYWFSHSGMSWAEAEKYCQLKNAHLVVINSREEQNFVQKYLGSAYTWMGLSDPEGAWKWVDGTDYATGFQNWKPGQPDDWQGHGLGGGEDCAHFTPDGRWNDDVCQRPYHWVCEAGLGQTSQESH
[1]
  glycan array binding signal (z-score): -0.173
[2]
  glycan array binding signal (z-score): -0.172
[3]
  glycan array binding signal (z-score): -0.174
[4]
  glycan array binding signal (z-score): -0.173
[5]
  glycan array binding signal (z-score): -0.217
[6]
  glycan array binding signal (z-score): -0.175
[7]
  glycan array binding signal (z-score): -0.176
[8]
  glycan array binding signal (z-score): -0.22
[9]
  glycan array binding signal (z-score): -0.175
[10]
  glycan array binding signal (z-score): -0.169
[11]
  glycan array binding signal (z-score): -0.178
[12]
  glycan array binding signal (z-score): -0.174
[13]
  glycan array binding signal (z-score): -0.183
[14]
  glycan array binding signal (z-score): -0.175
[15]
  glycan array binding signal (z-score): -0.178
[16]
  glycan array binding signal (z-score): -0.214
[17]
  glycan array binding signal (z-score): 6.48
[18]
  glycan array binding signal (z-score): -0.17
[19]
  glycan array binding signal (z-score): -0.173
[20]
  glycan array binding signal (z-score): -0.174
[21]
  glycan array binding signal (z-score): -0.18
[22]
  glycan array binding signal (z-score): -0.168
[23]
  glycan array binding signal (z-score): -0.173
[24]
  glycan array binding signal (z-score): -0.168
[25]
  glycan array binding signal (z-score): -0.175
[26]
  glycan array binding signal (z-score): -0.138
[27]
  glycan array binding signal (z-score): -0.16
[28]
  glycan array binding signal (z-score): -0.153
[29]
  glycan array binding signal (z-score): -0.163
[30]
  glycan array binding signal (z-score): -0.173
[31]
  glycan array binding signal (z-score): -0.177
Neu5Ac(a2-3)GalNAc
  glycan array binding signal (z-score): -0.17
[32]
  glycan array binding signal (z-score): -0.169
[33]
  glycan array binding signal (z-score): -0.074
[34]
  glycan array binding signal (z-score): -0.174
[35]
  glycan array binding signal (z-score): -0.172
[36]
  glycan array binding signal (z-score): -0.174
Neu5Ac(a2-6)Gal
  glycan array binding signal (z-score): -0.172
[37]
  glycan array binding signal (z-score): -0.179
Neu5Ac(a2-6)Gal(b1-4)Glc
  glycan array binding signal (z-score): -0.177
[38]
  glycan array binding signal (z-score): -0.174
[39]
  glycan array binding signal (z-score): -0.178
[40]
  glycan array binding signal (z-score): -0.101
[41]
  glycan array binding signal (z-score): -0.175
[42]
  glycan array binding signal (z-score): -0.176
